The values below come from patent US20230250178A1 (published 2023).

The target in assay [1] is T1, human CCR8 (human, UniProt P51685 1-355).
T1 construct: also called hCCR8; P51685_CCR8_HUMAN
Kind of assay: FACS, CHO-hCCR8. (In general: Flow cytometry measures light scatter and fluorescence of single cells or particles in a stream.)

In assay [2] the target is T1, human CCR8. Kind of assay: FACS, HuT78 (endogenous hCCR8).
In assay [3] the target is T2, cynomolgus CCR8 (cynomolgus, UniProt O97665 1-356 (rhesus entry)).
T2 construct: also called cynoCCR8; G7NYJ2_CCR8_MACFA
The assay is described as follows: FACS, CHO-cynoCCR8.

Assay [4] deals with T1, human CCR8. Kind of assay: cell-based or functional assay.
The target in assay [5] is T2, cynomolgus CCR8. Kind of assay: FACS, CHO-cynoCCR8. The source holds these as a separate data set.
Assay [6] concerns the target T1, human CCR8. Kind of assay: FACS, activated human Tregs.
In assay [7] the target is T1, human CCR8. The assay is described as follows: FACS, CHO-hCCR8. This is another data set of the same source.
Assay [8] addresses T1, human CCR8. Kind of assay: cell-based or functional assay. This is another data set of the same source.
Assay [9] deals with T3, Cyno_TRD_Ys peptide (# 2) (cynomolgus, Y(SO3) at printed positions 4, 16, 18 (Y3, Y15, Y17 of CCR8); C-terminal K(Biot)).
T3 construct: sulfated
T3 peptide: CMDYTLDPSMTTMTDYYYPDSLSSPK
Kind of assay: SPR, peptide on SA chip. How it is done:
(§1) SPR binding assays were performed to systematically evaluate antibody binding to a) non-sulfated vs sulfated antigen, b) TRD vs N term and c) human vs cynomolgus CCR8. SPR binding assays were performed on a Biacore T200 instrument (Cytiva) at 25° C. with assay buffer 1× HBS-EP+(order no. BR100826, Cytiva). Peptides were used as ligands and were captured using their C-terminal biotin label on to a streptavidin coated sensor chip (“Sensor Chip SA”, Order No. BR100398, Cytiva). To this end, a terminal lysine (K) was added at the C-term of each peptide for biotinylation. For the N term of CCR8, the naturally occurring cysteine between TRD and LID domain was replaced by a serine. […] The concentration of analyte in assay buffer was 0.05-10 nM and the measurement was performed in multicycle kinetics mode. The sensor surface was regenerated with glycine pH 2.0 after each cycle. Obtained sensorgrams were double referenced (subtraction of reference flow cell signal and buffer injection) and were fitted to a 1:1 Langmuir binding model to derive kinetic data using the Biacore T200 Evaluation software.
A general note: SPR reads the build-up and loss of mass on a sensor chip optically.

The target of assay [10] is T4, HUMAN_NTerm_Ys peptide (# 8) (human, Y(SO3) at printed positions 4, 16, 18 (Y3, Y15, Y17 of CCR8); C-terminal K(Biot)).
T4 construct: sulfated; natural cysteine between TRD and LID replaced by serine
T4 peptide: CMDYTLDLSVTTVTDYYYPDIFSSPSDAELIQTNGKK
The assay is described as follows: SPR, peptide on SA chip. How it is done: as §1

Assay [11] deals with T5, HUMAN_TRD_Ys peptide (# 4) (human, Y(SO3) at printed positions 4, 16, 18 (Y3, Y15, Y17 of CCR8); C-terminal K(Biot)).
T5 construct: sulfated
T5 peptide: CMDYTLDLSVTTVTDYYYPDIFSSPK
Kind of assay: SPR, peptide on SA chip. As to the method:
as §1

Assay [12] deals with T6, Cyno_NTerm_Ys peptide (# 6) (cynomolgus, Y(SO3) at printed positions 4, 16, 18 (Y3, Y15, Y17 of CCR8); C-terminal K(Biot)).
T6 construct: sulfated; natural cysteine between TRD and LID replaced by serine
T6 peptide: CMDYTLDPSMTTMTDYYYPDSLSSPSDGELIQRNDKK
Kind of assay: SPR, peptide on SA chip. As to the method:
as §1

Positions count from the first letter of the chain named. Where two headings read alike, the source gives them in different places.

T2 sequence (O97665 other isoform, or with tags, fused parts or gaps): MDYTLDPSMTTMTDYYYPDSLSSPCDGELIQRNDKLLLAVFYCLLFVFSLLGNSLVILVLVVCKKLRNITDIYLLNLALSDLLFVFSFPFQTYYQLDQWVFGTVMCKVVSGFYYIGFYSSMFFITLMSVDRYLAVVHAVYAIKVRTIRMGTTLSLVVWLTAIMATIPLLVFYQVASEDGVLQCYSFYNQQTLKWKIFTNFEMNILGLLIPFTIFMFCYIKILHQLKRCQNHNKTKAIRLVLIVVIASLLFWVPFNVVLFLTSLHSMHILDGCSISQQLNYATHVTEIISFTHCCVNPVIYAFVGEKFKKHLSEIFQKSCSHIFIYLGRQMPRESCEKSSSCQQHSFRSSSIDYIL

B1: TPP-20955 (antibody, human IgG1, lambda)
heavy: EVQLLESGGGLVQPGGSLRLSCAASGFTFSSYGMHWVRQAPGKGLEWVSAIKWGGGSHGYADSVKGRFTISRDNSKNTLYLQMNSLRAEDTAVYYCARGHHKGYDGRFFDYWGQGTLVTVSS[here human IgG1 constant region without letters]
light: QSVLTQPPSVSGAPGQRVTISCTGSSSNIGAGYNVHWYQQLPGTAPKLLIYTNNRRPSGVPDRFSGSKSGTSASLAISGLRSEDEADYYCAAWDASLSGWVFGGGTKLTVLGQPKAAPSVTLFPPSSEELQANKATLVCLISDFYPGAVTVAWKADSSPVKAGVETTTPSKQSNNKYAASSYLSLTPEQWKSHRSYSCQVTHEGSTVEKTVAPTECS
notes: also called 18206-gl-47-hIgG1wt-Lambda; copies: 2 + 2
The EC50 is the concentration that produces a half-maximal response. A low value points to greater potency. On to B1, for which the concentration giving a half-maximal response (EC50) in [1] amounted to 0.469 nM; in [2], 0.456 nM; in [3], 0.475 nM. Further, the “IC50, Ca flux assay” value in assay [4] came to 0.52 nM.

B2: TPP-17578 (antibody, human IgG1, lambda)
heavy: EVQLLESGGGLVQPGGSLRLSCAASGFTFSNAWMSWVRQAPGKGLEWVSGINWNGGSTGYADSVKGRFTISRDNSKNTLYLQMNSLRAEDTAVYYCVRTYSGHYGPYFDNWGQGTLVTVSS[here human IgG1 constant region without letters]
light: QSVLTQPPSASGTPGQRVTISCSGSSSNIGSHTVNWYQQLPGTAPKLLIYRNNQRPSGVPDRFSGSKSGTSASLAISGLRSEDEADYYCAAWDDSLNGWVFGGGTKLTVLGQPKAAPSVTLFPPSSEELQANKATLVCLISDFYPGAVTVAWKADSSPVKAGVETTTPSKQSNNKYAASSYLSLTPEQWKSHRSYSCQVTHEGSTVEKTVAPTECS
notes: also called 497A-M128-B10-1-hIgG1Lambda; copies: 2 + 2
Consider B2, for which the EC50 in [5] came to 1.04 nM; in assay [1], 11.5 nM; in assay [2] it was 178 nM; in assay [6], 25.1 nM; in assay [3], 2.72 nM; in assay [7], 1.66 nM. Besides, the “IC50, Ca flux assay” value in assay [8] amounted to 4.53 nM.

B3: TPP-21045 (antibody, human IgG1, lambda)
heavy: B2 heavy with N31S, N52S, N54S, D62L, V97A, Y107F, N110Y
light: B2 light
notes: also called 17578-gl79-hIgG1-wt-Lambda; copies: 2 + 2
With B3, the “IC50, Ca flux assay” value in assay [4] came to 0.29 nM.

B4: TPP-19546 (antibody, human IgG1, lambda)
heavy: B2 heavy with N31S, N52S, N54S, V97A, N110Y
light: B2 light
notes: also called 17578-gl33-hIgG1Lambda; copies: 2 + 2
A word on the Kd: it is the free concentration of one partner at which half of the binding sites on the other are occupied at equilibrium, for simple one-to-one binding. Read a high Kd as weaker binding. As usually defined, the koff is a measure of how fast the partners let go of each other. Low values mean slow dissociation, high ones fast dissociation. In general, kon refers to a measure of how fast the partners come together. On to B4, for which the Activity in % was determined as 81.8% in [9], 25.2% in assay [10], 54.8% in assay [11] and 107% in assay [12]. Moreover, the Kd in [9] is approximately 0.171 nM; in assay [10], approximately 0.16 nM; in assay [11], approximately 0.242 nM; in [12], approximately 0.0922 nM. Also, the koff in [9] was approximately 0.000844 s⁻¹; in assay [10], approximately 0.00419 s⁻¹; in [11] it was approximately 0.00162 s⁻¹; in assay [12], approximately 0.00154 s⁻¹. Moreover, the kon in assay [9] is approximately 4.92e+06 M⁻¹ s⁻¹; in assay [10] it was approximately 2.61e+07 M⁻¹ s⁻¹; in assay [11], approximately 6.69e+06 M⁻¹ s⁻¹; in [12], approximately 1.67e+07 M⁻¹ s⁻¹. Besides, the EC50 in assay [5] turned out to be 0.52 nM; in assay [6] it was 15.2 nM; in assay [7], 0.78 nM.
